Source: PubChem BioAssay AID624417 (National Center for Advancing Translational Sciences (NCATS), 2012)
About 6,400 (1.6%) of roughly 410,000 compounds were called active. The inconclusive results got no clear call from the source; some entries with a clear call stand among them for comparison. Calls come from the whole dose curve; as a rule, active = well fitted inhibition curve with a large enough effect; inconclusive = small, poorly fitted or top-dose-only effect; inactive = no such curve, though single readings can be large or run the other way. No potency is given beside an inconclusive call; the fits are too rough.

molecular target: Glucagon-like peptide 1 receptor (Homo sapiens) (UniProt P43220); assay: qHTS of GLP-1 Receptor Inverse Agonists (Inhibition Mode); conditions: HEK293 GLP-1R CRE-luciferase, luminescence, 24 h, GLP-1R form is constitutively active; activity change, negative = inhibition: at 38.3 µM (top of the series) unless noted; note: nearly all actives have a fitted effect of over 55% in size
UniProt P43220, sequence (P43220 whole entry, looked up): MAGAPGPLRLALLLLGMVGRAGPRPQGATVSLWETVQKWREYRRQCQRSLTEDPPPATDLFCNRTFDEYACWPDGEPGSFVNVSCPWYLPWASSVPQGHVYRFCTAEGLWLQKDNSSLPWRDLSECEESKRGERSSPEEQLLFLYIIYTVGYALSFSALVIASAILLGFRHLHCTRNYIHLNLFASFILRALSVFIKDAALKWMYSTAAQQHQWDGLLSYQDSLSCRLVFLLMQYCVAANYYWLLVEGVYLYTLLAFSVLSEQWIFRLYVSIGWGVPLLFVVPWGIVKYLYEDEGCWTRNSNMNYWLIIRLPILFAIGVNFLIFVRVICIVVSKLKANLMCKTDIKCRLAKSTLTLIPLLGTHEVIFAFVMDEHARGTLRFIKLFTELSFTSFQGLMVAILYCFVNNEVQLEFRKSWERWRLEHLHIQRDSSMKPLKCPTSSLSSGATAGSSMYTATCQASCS
In short: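 Seeding at 200 cells/uL, 12 h culture, 24 hr compound treatment, then luciferase reagent and a luminescence read; cells are HEK293 stably expressing a constitutively active GLP-1R plus cAMP-responsive luciferase.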
% is set by controls: 0 for no effect and ±100 for the full control effect; potency is the fitted concentration of half-maximal effect; tags give direction and shape of the fitted curve.

Row | Structure (SMILES) | Potency | activity change, negative = inhibition
1 | CCOc1ccccc1N=C1SC(CC(=O)Nc2ccc(OC)cc2OC)C(=O)N1CCC1=CCCCC1 (centres undefined) | active: 2.82 µM | 
2 | COc1ccc(C(=O)/C=C/c2ccc(OC)c(O)c2)c(F)c1 | inconclusive [inhibitor, partial curve, poor fit] | 
3 | CCCC(=O)OCC(=O)Nc1cc([N+](=O)[O-])ccc1OC |  | inactive: 35.7%
4 | C/C(=N\Nc1nc2ccccc2nc1C)c1ccccc1O | inconclusive [inhibitor, partial curve, poor fit] | 
5 | COc1cc(-c2ccc(Nc3ccccc3C(=O)O)c(OC)c2)ccc1Nc1ccccc1C(=O)O | inconclusive [inhibitor, partial curve, poor fit] | 
6 | Cc1ccc2c(c1)sc(C)[n+]2CCCS(=O)(=O)[O-] |  | inactive: -1.64%
7 | CCOC(=O)N/N=C/c1cn(Cc2ccccc2Cl)c2ccccc12 | active: 7.94 µM | 
8 | CCCC(=O)Nc1ccc(-c2nc3cc(C)ccc3o2)cc1 | inconclusive [inhibitor, single point] | 
9 | O=C(CN1CCN(C(c2ccccc2)c2ccccc2)CC1)N1CCN(c2ccccc2)CC1 | inconclusive [inhibitor, partial curve, poor fit] | 
10 | O=C1NC(Cc2ccc(O)cc2)c2nc3cc(F)ccc3c(=O)n2-c2cc3ccccc3cc21 (centres undefined) | inconclusive [inhibitor, partial curve, poor fit] | 
11 | CCC(C)NC(=O)c1cnn2c(C)c3c(nc12)CCCC3 (centres undefined) |  | inactive: 34.7%
12 | CNc1ccc(Br)cc(C(=O)/C=C/c2ccc(Cl)cc2Cl)c1=O | inconclusive [inhibitor, full curve, poor fit] | 
13 | CCOC(=O)c1cc(-c2ccccc2)n(CC(=O)Nc2cc(OC)cc(OC)c2)c1C | inconclusive [inhibitor, partial curve, poor fit] | 
14 | CCC(=O)N(CCC(c1ccco1)C(C)C)Cc1ccccc1 (centres undefined) | inconclusive [inhibitor, single point] | 
15 | CCc1ccccc1NC(=O)C1=C(C)C(=O)OC12CCCCCC2 | inconclusive [inhibitor, partial curve, poor fit] | 
16 | COc1cc(OC)c(C(=O)OC(C)C(=O)Nc2cccc(C(F)(F)F)c2)cc1OC (centres undefined) | inconclusive [inhibitor, partial curve, poor fit] | 
17 | COc1cc(-c2coc3c(C(=O)NCc4cccc(Cl)c4)cccc23)ccc1O | inconclusive [inhibitor, single point] | 
18 | CCCc1cc(NCCCn2ccnc2)n2nc(C)c(-c3ccccc3)c2n1 | inconclusive [inhibitor, single point] | 
19 | CCN(C(=O)C(C)N1C(=O)/C(=C/c2cccs2)SC1=S)C1CCS(=O)(=O)C1 (centres undefined) | inconclusive [inhibitor, partial curve, poor fit] | 
20 | CN1CCC2CC1c1cc(-c3ccc(C(F)(F)F)cc3)ccc12 (centres undefined) | inconclusive [inhibitor, partial curve, poor fit] | 
21 | Cc1ccc(-c2nc(C3CCCN(S(=O)(=O)c4ccc(C)cc4)C3)no2)cc1 (centres undefined) | inconclusive [inhibitor, partial curve, poor fit] | 
22 | CCOc1ccccc1NC(=O)COc1coc(CN2CCc3ccccc3C2)cc1=O | inconclusive [inhibitor, single point] | 

Row | Structure (SMILES) | Potency | activity change, negative = inhibition
23 | COc1ccc(CSc2ccc(-c3nc4ccccn4c3NCc3ccccc3)cc2OC)cc1 | inconclusive [inhibitor, partial curve, poor fit] | 
24 | O=C(COC(=O)/C=C/c1ccccc1)NC(=O)NC1CCCCC1 | inconclusive [inhibitor, single point] | 
25 | O=C(O)Cn1c(=O)c2c3c(sc2n(Cc2ccc(Cl)cc2Cl)c1=O)CCCC3 | inconclusive [inhibitor, single point] | 
26 | Cc1cc(N/N=C/c2ccc3c(c2)OCO3)nc2ccccc12 | inconclusive [inhibitor, single point] | 
27 | Cc1ccc2nc(-c3ccccc3)cn2c1 | inconclusive [inhibitor, full curve, poor fit] | 
28 | O=C(c1ccc(Cl)cc1)C1CCCN(Cc2cccn2-c2ccccn2)C1 (centres undefined) | inconclusive [inhibitor, single point] | 
29 | Cc1ccc(C)c(N2CCN(C(=O)c3noc4c3CCCCC4)CC2)c1 | inconclusive [inhibitor, single point] | 
30 | CCOc1cccc2c1OC(c1cc(OC)c(OC)c(OC)c1)N1N=C(c3ccc(C)o3)CC21 (centres undefined) | inconclusive [inhibitor, single point] | 
31 | COc1ccc(C(=O)OCCc2ccc(O)cc2)cc1 |  | inactive: 44.2%
32 | CNc1cnn(-c2ccc(C)cc2)c(=O)c1Sc1ccc(C)cc1 | inconclusive [inhibitor, partial curve] | 
33 | CCCCOC(=O)c1ccc(NC(=O)c2nn(C)cc2Br)cc1 | inconclusive [inhibitor, single point] | 
34 | CCC(c1nnnn1-c1c(C)cccc1C)N1CCCN(Cc2ccc(F)cc2)CC1 (centres undefined) | inconclusive [inhibitor, single point] | 
35 | Cc1ccccc1Cn1c(CN2CCCC(C)C2)nc2c1c(=O)n(C)c(=O)n2C (centres undefined) | inconclusive [inhibitor, single point] | 
36 | COc1ccccc1C(=O)NC(=O)COC(=O)CCOc1ccccc1C |  | inactive: 2.3%
37 | Cn1c(=O)cc(OCC(=O)NCCCN2CCN(c3ccccc3F)CC2)c2ccccc21 |  | inactive: -12.4%
38 | Cc1ccc(C)c(SCC(=O)NCC(c2ccco2)N2CCCCC2)c1 (centres undefined) | active: 11.2 µM | 
39 | NC(=NCc1ccccc1)C(N=Nc1ccccc1)C(=O)NCc1ccccc1 (centres undefined) | inconclusive [inhibitor, single point] | 
40 | CCc1ccc(/C=C2/Sc3ccccc3N(CC(=O)NCC3CCCO3)C2=O)cc1 (centres undefined) | inconclusive [inhibitor, partial curve, poor fit] | 
41 | NC(=S)C(c1ccccc1)c1ncc(C(F)(F)F)cc1Cl (centres undefined) | inconclusive [inhibitor, single point] | 
42 | Cc1[nH]c2ccccc2c1C(c1ccccn1)c1c(C)[nH]c2ccccc12 | inconclusive [inhibitor, partial curve, poor fit] | 
43 | CC(=O)c1cc2c(cc1N/C(=N/S(=O)(=O)c1ccc(Br)cc1)c1ccccc1)OCO2 | inconclusive [inhibitor, partial curve, poor fit] | 
44 | CCC(C)[C@H](NC(=O)NCCC1=CCCCC1)C(=O)OC (some centres undefined) | inconclusive [inhibitor, partial curve, poor fit] | 

Row | Structure (SMILES) | Potency | activity change, negative = inhibition
45 | COC(=O)c1ccc(NC(=O)Cn2nnc3ccccc32)cc1 |  | inactive: -21.2%
46 | Cc1[nH]c2ccc(C(=O)N3CCN(c4ccc(F)cc4)CC3)cc2c1C | inconclusive [inhibitor, single point] | 
47 | COc1cccc(/C=N/n2c(N)c(S(=O)(=O)c3cccs3)c3nc4ccccc4nc32)c1 |  | inactive: 0.601%
48 | C=CCN=c1scc(-c2ccc3c(c2)NC(=O)CO3)n1/N=C(\C)c1ccccn1 |  | inactive: -30%
49 | Cc1cc(C)c(C)c(S(=O)(=O)NCCCN2CCOCC2)c1C | inconclusive [inhibitor, single point] | 
50 | CSc1cccc(CN2CCC(Oc3ccc(C(=O)N4CCCCC4)cc3)CC2)c1 | inconclusive [inhibitor, partial curve, poor fit] | 
51 | C=CCn1c(=O)c(C(=O)Nc2ncccc2C)c(O)c2ccccc21 | inconclusive [inhibitor, full curve, poor fit] | 
52 | CC(C)[C@H](NC(=O)OCc1ccccc1)C(=O)OCc1cc(=O)oc2cc(O)ccc12 | inconclusive [inhibitor, single point] | 
53 | O=C(CCc1ccccc1)Nc1ccc2ccccc2n1 |  | inactive: -5.3%
54 | COC(=O)c1cc(C)[nH]c2c(C)cc3nc4ccccc4c3c12 | inconclusive [inhibitor, single point] | 
55 | O=C(Nc1ccc(C(=O)N2CCCCC2)cc1)Nc1cccc(Cl)c1 | inconclusive [inhibitor, full curve, poor fit] | 
56 | O=C(COc1ccccc1[N+](=O)[O-])N(Cc1ccco1)c1ccccn1 |  | inactive: 17.5%
57 | COC(=O)c1ccc(-c2nc3ccccc3[nH]2)cc1 | inconclusive [inhibitor, single point] | 
58 | CCc1nc2c(OCc3ccc(Cl)cc3)cccn2c1N(C)C(=O)c1ccc2c(c1)OCO2 | inconclusive [inhibitor, single point] | 
59 | COc1ccc(C)cc1NC(=O)N1CCCn2nc(C)cc21 |  | inactive: 3.77%
60 | O=C(C1CCC1)N1CCc2cc(S(=O)(=O)NCc3ccc(F)cc3)ccc21 |  | inactive: 4.28%
61 | C[C@H]1CN([C@@H](C)CO)C(=O)c2cccc(NC(=O)Nc3ccc(C(F)(F)F)cc3)c2O[C@@H]1CN(C)C(=O)Nc1ccc(F)cc1 | active: 11.2 µM | 
62 | CC(C)CC(=O)Nc1c(C(=O)N2CCN(c3ccccc3)CC2)oc2ccccc12 | inconclusive [inhibitor, single point] | 
63 | O=C(CCN1C(=O)/C(=C/c2ccccc2F)SC1=S)NCCc1ccc(O)cc1 | inconclusive [inhibitor, partial curve, poor fit] | 
64 | COc1ccc(CNC(=O)C(C)Sc2ccc(C)cc2)cc1 (centres undefined) | inconclusive [inhibitor, partial curve, poor fit] | 
